In all, about 39,000 compounds went through this assay and about 220 (0.56%) showed activity. The list shows a part of the results.
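Also: static incubation at 37 °C against the wild-type strain, values averaged over two biological replicates.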

This assay has as its system Escherichia coli K-12 BW25113. Kind of assay: relative growth (OD600 normalised to plate interquartile mean) (fraction); higher = less growth inhibition, active = 0.2 or less. To be noted: 50 µM; LB; incubation time: overnight (16-24 h).
As for `COCC#Cc1ccc2c(c1)O[C@H](CN(C)S(=O)(=O)c1ccc(C)cc1)[C@@H](C)CN([C@@H](C)CO)S2(=O)=O`, the relative growth is inactive: 1.02. Then `COc1ccc2c3c([nH]c2c1)[C@@H](CO)N(C[C@]13CCN(CC1)C(=O)CN(C)C)S(=O)(=O)C`, with inactive: 0.983; and `C[C@@H]1CN([C@@H](C)CO)C(=O)c2cc(NC(=O)Nc3cccc4ccccc34)ccc2O[C@H]1CN(C)Cc1ccc(C(F)(F)F)cc1`, with inactive: 1.03; and `C[C@@H]1CCCCO[C@H](CN(C)C(=O)NC2CCCCC2)[C@H](C)CN([C@@H](C)CO)C(=O)c2cc(NC(=O)Nc3ccc4c(c3)OCO4)ccc2O1`, with inactive: 0.991. Regarding `C[C@@H]1CN([C@@H](C)CO)C(=O)c2cccc(NS(C)(=O)=O)c2O[C@H]1CN(C)S(=O)(=O)c1cn(C)cn1`, the relative growth is inactive: 0.977. In the case of `C[C@H](CO)N1C[C@H](C)[C@@H](CN(C)Cc2ccc(C(=O)O)cc2)Oc2ccc(NS(=O)(=O)c3cn(C)cn3)cc2CC1=O`, the relative growth was inactive: 1.02. Then `C=c1ccccc1=C1NN=C(CN2CCCC2)O1`, with inactive: 1.03. Consider `Cc1noc(C)c1S(=O)(=O)N(C)C[C@@H]1Oc2ccc(NC(=O)C3CC3)cc2CC(=O)N([C@@H](C)CO)C[C@H]1C`, for which the relative growth was inactive: 0.968. For `C[C@@H]1CN([C@@H](C)CO)C(=O)c2cccc(NC(=O)Nc3ccc(F)cc3)c2O[C@H]1CN(C)Cc1ccc(-c2ccccc2)cc1`, the relative growth was inactive: 0.968. For `Cc1ccc(S(=O)(=O)Nc2ccc3c(c2)C(=O)N([C@H](C)CO)C[C@@H](C)[C@H](CN(C)C(=O)Nc2ccccc2)OCCCC[C@@H](C)O3)cc1` the value was inactive: 1.03.

Take `CCCOc1ccc(=O)n(C)n1`: the relative growth is inactive: 0.927. For `CCCN(C)C[C@H]1OCCCC[C@H](C)Oc2ccc(NC(=O)Nc3ccc(OC)cc3)cc2C(=O)N([C@H](C)CO)C[C@@H]1C` the value was inactive: 0.997; for `C[C@@H]1CN([C@H](C)CO)C(=O)c2cc(NC(=O)c3ccncc3)ccc2O[C@@H](C)CCCCO[C@@H]1CN(C)C(=O)C1CCCCC1`, inactive: 1.01; for `C[C@H]1CN([C@@H](C)CO)C(=O)Cc2cc(NC(=O)Cc3cn(C)c4ccccc34)ccc2O[C@@H]1CN(C)C`, inactive: 0.997. Then `C[C@H]1CCCCO[C@H](CN(C)C(=O)Nc2ccc(C(F)(F)F)cc2)[C@@H](C)CN([C@@H](C)CO)C(=O)c2cc(NC(=O)Cc3ccccc3)ccc2O1`, with inactive: 1.02; and `C[C@@H]1CN([C@@H](C)CO)C(=O)c2cccc(NC(=O)Nc3ccc(F)cc3)c2O[C@H]1CN(C)S(C)(=O)=O`, with inactive: 0.995.

As to `C[C@@H]1CN([C@@H](C)CO)C(=O)c2cc(NC(=O)CCN3CCOCC3)ccc2O[C@@H]1CN(C)C(=O)Nc1ccc(F)cc1`, the relative growth is inactive: 1.

Take `O=C(NCCO[N+](=O)[O-])c1cccnc1`: the relative growth was inactive: 1.07. For `C[C@H]1CN([C@@H](C)CO)S(=O)(=O)c2ccc(-c3ccc(C(=O)N(C)C)cc3)cc2O[C@H]1CN(C)C(=O)C1CCOCC1` the value was inactive: 1.03.

As for `Cc1ccc(S(=O)(=O)N(C)C[C@H]2OCCCC[C@@H](C)Oc3ccc(NC(=O)Nc4cccc5ccccc45)cc3C(=O)N([C@@H](C)CO)C[C@@H]2C)cc1`, the relative growth was inactive: 1.03.

On to `C[C@H]1CN([C@@H](C)CO)C(=O)c2cc(C#Cc3cccc(F)c3)cnc2O[C@@H]1CN(C)Cc1ccccn1`, for which the relative growth is inactive: 0.999.

In the case of `COc1ccc(S(=O)(=O)N(C)C[C@H]2Oc3cc(C#CC4CCCC4)ccc3S(=O)(=O)N([C@@H](C)CO)C[C@@H]2C)cc1`, the relative growth is inactive: 1.04. For `O=C1CN(S(=O)(=O)Cc2ccccc2)C[C@@H]2[C@@H](c3ccc(C#Cc4cccc(F)c4)cc3)[C@@H](CO)N12` the value was inactive: 0.997; for `C[C@H](CO)N1C[C@H](C)[C@@H](CN(C)S(=O)(=O)c2ccccc2)Oc2ccc(NC(=O)CCCN(C)C)cc2C1=O`, inactive: 1.01; for `C[C@@H]1CN([C@H](C)CO)C(=O)c2cc(NC(=O)C3CC3)ccc2O[C@@H]1CN(C)S(=O)(=O)c1ccccc1`, inactive: 0.987. As for `Cc1ccc(S(=O)(=O)N[C@H](C(=O)NCCn2cc(CN3C(=O)COC[C@H]3c3ccccc3)nn2)C(C)C)cc1`, the relative growth was inactive: 0.995.

For the molecule `C[C@H](CO)N1C[C@H](C)[C@@H](CN(C)C(=O)CN(C)C)Oc2cc(C#Cc3ccc(F)cc3)ccc2S1(=O)=O`, the relative growth was inactive: 1.01. Then `CN(C)CCN1CCO[C@@H]2CN(Cc3cnn(C)c3)C[C@@H]21`, with inactive: 1.01; and `COC(=O)c1ccc(C(=O)NN)cc1`, with inactive: 0.967; and `C[C@H]1CCCCO[C@@H](CN(C)C(=O)c2ccccc2)[C@@H](C)CN([C@@H](C)CO)C(=O)c2cc(NC(=O)Nc3ccc(F)cc3)ccc2O1`, with inactive: 1.03. For `COc1ccc(S(=O)(=O)N(C)C[C@H]2OCc3cn(nn3)CCCC(=O)N([C@@H](C)CO)C[C@@H]2C)cc1` the value was inactive: 1. Then `C[C@H]1CCCCO[C@@H](CN(C)C(=O)c2ccccc2)[C@@H](C)CN([C@@H](C)CO)C(=O)c2cc(NC(=O)Nc3ccc(C(F)(F)F)cc3)ccc2O1`, with inactive: 1; and `COC(=O)CNC(=O)C(=O)OC`, with inactive: 0.982; and `C[C@@H]1CCCCO[C@H](CN(C)Cc2ccc3c(c2)OCO3)[C@H](C)CN([C@@H](C)CO)C(=O)c2cc(NC(=O)c3ccccc3)ccc2O1`, with inactive: 0.996.

Consider `C[C@H](CO)N1C[C@H](C)[C@@H](CN(C)Cc2ccc(C(F)(F)F)cc2)Oc2ccc(NC(=O)Nc3cccc4ccccc34)cc2C1=O`, for which the relative growth is inactive: 0.988. Then `Cc1noc(C)c1NC(=O)Nc1ccc2c(c1)C(=O)N([C@H](C)CO)C[C@H](C)[C@H](CN(C)C(=O)Nc1ccc(C(F)(F)F)cc1)OCCCC[C@@H](C)O2`, with inactive: 1.01; and `COc1ccc(S(=O)(=O)Nc2cccc3c2O[C@H](CN(C)C(=O)Nc2c(C)noc2C)[C@@H](C)CN([C@@H](C)CO)C3=O)cc1`, with inactive: 1.02.

As to `COc1ccc(NC(=O)N(C)C[C@H]2OCCCC[C@@H](C)Oc3ccc(NC(=O)Nc4ccc(F)cc4)cc3C(=O)N([C@H](C)CO)C[C@H]2C)cc1`, the relative growth is inactive: 1.04.

In the case of `C[C@@H]1CN([C@@H](C)CO)C(=O)c2cc(C#CC3CCCCC3)cnc2O[C@@H]1CN(C)C(=O)c1ccncc1`, the relative growth is inactive: 0.985. With `CCCNc1nc(=O)c(C)n[nH]1`, the relative growth is inactive: 0.97. Then `CC(=O)N1CCc2nc(N)sc2C1`, with inactive: 1.

In the case of `COCCN1CC[C@@H](CO)C1`, the relative growth is inactive: 1. Then `Nc1ncnc2nc(N3CCCCC3)[nH]c12`, with inactive: 1.01; and `Cl.Clc1ccc2c(c1)CCc1cccnc1C2=C1CCNCC1`, with inactive: 1.09.

Regarding `CCc1c(C)[nH]c2c(C#N)cnn2c1=O`, the relative growth is inactive: 0.947. Regarding `C[C@H]1CN([C@@H](C)CO)C(=O)c2cccc(NS(C)(=O)=O)c2O[C@@H]1CN(C)S(=O)(=O)c1ccc(F)cc1`, the relative growth was inactive: 1. For `C[C@H]1CCCCO[C@H](CN(C)Cc2ccc3c(c2)OCO3)[C@@H](C)CN([C@@H](C)CO)C(=O)c2cc(NS(=O)(=O)c3cccs3)ccc2O1` the value was inactive: 0.89. Then `CN1CCN(C(=O)C[C@@H]2CC[C@@H]3[C@H](COc4ccc(NC(=O)C5CCOCC5)cc4C(=O)N3C)O2)CC1`, with inactive: 0.987.

For the molecule `C[C@@H]1CN([C@@H](C)CO)C(=O)c2cc(C#Cc3cccnc3)cnc2O[C@H]1CN(C)Cc1ccc(F)cc1`, the relative growth is inactive: 1. Regarding `COCCNCc1ccc(-c2cc3nccc(Oc4ccc(NC(=S)NC(=O)Cc5ccc(F)cc5)cc4F)c3s2)nc1`, the relative growth is inactive: 1. For `C[C@@H]1CCCCO[C@H](CN(C)S(=O)(=O)c2cn(C)cn2)[C@@H](C)CN([C@H](C)CO)C(=O)c2cc(NS(C)(=O)=O)ccc2O1` the value was inactive: 1. Then `CC(C)NC(=O)Nc1ccc2c(c1)C(=O)N([C@@H](C)CO)C[C@@H](C)[C@H](CN(C)S(=O)(=O)c1ccccc1)O2`, with inactive: 1; and `C[C@H]1CCCCO[C@H](CN(C)Cc2ccncc2)[C@@H](C)CN([C@@H](C)CO)C(=O)c2cc(NC(=O)Cc3ccccc3)ccc2O1`, with inactive: 1.04; and `Oc1ccc(OCc2ccccc2)cc1`, with inactive: 0.946. For `COc1ccc(CN(C)C[C@@H]2OCCCC[C@H](C)Oc3ccc(NS(=O)(=O)c4ccc(Cl)cc4)cc3C(=O)N([C@H](C)CO)C[C@H]2C)cc1` the value was inactive: 0.984; for `C[C@H](CO)N1C[C@H](C)[C@H](CN(C)C(=O)c2ccncc2)OCCCC[C@H](C)Oc2ccc(NS(C)(=O)=O)cc2C1=O`, inactive: 1.02. Turning to `CCNC(=S)N1CCOCC1`, the relative growth was inactive: 1.05.

Turning to `C[C@H]1CCCCO[C@@H](CN(C)Cc2ccc(C(F)(F)F)cc2)[C@@H](C)CN([C@@H](C)CO)C(=O)c2cc(NS(=O)(=O)c3ccccc3)ccc2O1`, the relative growth was inactive: 1.01. Then `C[C@H]1O[C@@H](O[C@@H]2[C@@H](OC(=O)/C=C/c3ccc(O)c(O)c3)[C@H](CO)O[C@H](OCCc3ccc(O)c(O)c3)[C@@H]2O[C@H]2OC[C@@H](O)[C@@H](O)[C@@H]2O)[C@@H](O)[C@@H](O)[C@@H]1O`, with inactive: 0.986. Then `C[C@@H]1CCCCO[C@@H](CN(C)CC2CCCCC2)[C@H](C)CN([C@@H](C)CO)C(=O)c2cc(NS(=O)(=O)c3ccc(F)cc3)ccc2O1`, with inactive: 0.976; and `CC(=O)/C=C/c1ccc(-c2ccc([C@H]3CC(=O)C[C@@H](c4ccccc4)C34C(=O)c3ccccc3C4=O)cc2)cc1`, with inactive: 1.05; and `C[C@H](CO)N1C[C@H](C)[C@@H](CN(C)S(C)(=O)=O)Oc2ccc(NC(=O)Nc3ccccc3)cc2C1=O`, with inactive: 0.998.

These data come from the supplement of paper PMC9446081.
